# In publication PMC5571198:
# Amino acid sequences for entries named in this document (tags omitted).
# UniProt Q9BSM1: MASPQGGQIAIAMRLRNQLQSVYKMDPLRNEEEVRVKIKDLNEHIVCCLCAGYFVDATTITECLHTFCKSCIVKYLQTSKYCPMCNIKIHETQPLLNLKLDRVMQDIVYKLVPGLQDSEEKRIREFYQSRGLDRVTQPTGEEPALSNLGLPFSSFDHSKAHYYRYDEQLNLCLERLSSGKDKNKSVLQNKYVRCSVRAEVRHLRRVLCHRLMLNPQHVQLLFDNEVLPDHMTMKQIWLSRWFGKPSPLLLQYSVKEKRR
# UniProt Q92800: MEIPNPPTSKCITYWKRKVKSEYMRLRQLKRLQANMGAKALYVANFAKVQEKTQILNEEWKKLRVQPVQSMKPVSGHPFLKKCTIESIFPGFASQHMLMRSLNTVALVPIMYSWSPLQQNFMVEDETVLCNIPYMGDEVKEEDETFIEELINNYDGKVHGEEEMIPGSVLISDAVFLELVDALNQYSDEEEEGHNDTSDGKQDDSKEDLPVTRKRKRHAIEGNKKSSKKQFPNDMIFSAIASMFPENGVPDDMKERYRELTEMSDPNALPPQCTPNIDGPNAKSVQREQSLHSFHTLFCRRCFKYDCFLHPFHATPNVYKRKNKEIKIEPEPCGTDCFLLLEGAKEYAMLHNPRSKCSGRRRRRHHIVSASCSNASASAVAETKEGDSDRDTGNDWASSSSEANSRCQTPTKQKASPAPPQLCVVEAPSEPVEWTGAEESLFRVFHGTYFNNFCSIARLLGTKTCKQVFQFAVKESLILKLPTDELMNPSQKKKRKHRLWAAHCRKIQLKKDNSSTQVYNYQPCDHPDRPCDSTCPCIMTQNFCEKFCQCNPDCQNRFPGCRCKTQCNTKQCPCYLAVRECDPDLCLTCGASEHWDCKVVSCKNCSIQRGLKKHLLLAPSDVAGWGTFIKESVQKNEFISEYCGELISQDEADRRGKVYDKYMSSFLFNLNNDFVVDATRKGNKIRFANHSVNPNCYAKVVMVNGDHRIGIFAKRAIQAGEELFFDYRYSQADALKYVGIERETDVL
# UniProt O75530: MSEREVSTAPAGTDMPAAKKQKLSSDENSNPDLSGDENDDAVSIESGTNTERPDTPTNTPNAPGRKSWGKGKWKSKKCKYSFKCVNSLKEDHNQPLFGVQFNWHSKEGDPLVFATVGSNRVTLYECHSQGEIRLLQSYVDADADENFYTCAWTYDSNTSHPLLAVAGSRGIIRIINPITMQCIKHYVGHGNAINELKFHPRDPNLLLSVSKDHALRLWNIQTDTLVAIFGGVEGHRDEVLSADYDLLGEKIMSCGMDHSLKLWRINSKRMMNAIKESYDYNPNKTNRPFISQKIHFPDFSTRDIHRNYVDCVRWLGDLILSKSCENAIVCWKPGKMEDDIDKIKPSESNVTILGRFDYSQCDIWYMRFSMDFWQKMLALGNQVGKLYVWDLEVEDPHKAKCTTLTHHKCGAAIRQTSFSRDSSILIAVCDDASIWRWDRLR
# UniProt O95931: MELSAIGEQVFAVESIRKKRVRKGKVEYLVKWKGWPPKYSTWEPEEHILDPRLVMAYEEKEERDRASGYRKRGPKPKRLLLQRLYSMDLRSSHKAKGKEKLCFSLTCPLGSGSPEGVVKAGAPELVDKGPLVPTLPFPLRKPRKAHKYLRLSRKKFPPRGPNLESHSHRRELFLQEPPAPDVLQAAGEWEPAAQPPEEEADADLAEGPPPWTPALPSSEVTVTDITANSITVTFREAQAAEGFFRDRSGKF
# UniProt Q99496: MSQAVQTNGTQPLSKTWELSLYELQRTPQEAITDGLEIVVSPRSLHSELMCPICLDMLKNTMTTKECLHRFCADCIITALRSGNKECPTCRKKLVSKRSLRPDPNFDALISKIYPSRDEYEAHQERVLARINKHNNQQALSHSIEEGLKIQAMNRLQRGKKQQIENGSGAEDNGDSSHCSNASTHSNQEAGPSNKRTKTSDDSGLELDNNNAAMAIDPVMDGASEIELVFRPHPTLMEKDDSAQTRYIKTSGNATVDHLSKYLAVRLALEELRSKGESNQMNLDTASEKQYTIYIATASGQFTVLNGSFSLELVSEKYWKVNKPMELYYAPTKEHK
# UniProt P35226: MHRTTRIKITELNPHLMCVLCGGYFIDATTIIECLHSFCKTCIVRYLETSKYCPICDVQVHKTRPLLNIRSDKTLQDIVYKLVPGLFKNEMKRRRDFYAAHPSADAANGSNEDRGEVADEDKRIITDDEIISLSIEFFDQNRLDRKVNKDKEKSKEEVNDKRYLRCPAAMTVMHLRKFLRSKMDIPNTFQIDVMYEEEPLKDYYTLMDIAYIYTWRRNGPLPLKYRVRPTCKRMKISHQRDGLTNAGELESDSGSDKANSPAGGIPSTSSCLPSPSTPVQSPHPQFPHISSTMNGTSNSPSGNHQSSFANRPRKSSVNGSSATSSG
# No constants are given. Whether binding was seen depends on the method and setting. Binding seen in cells or lysates may run through a third protein. Some results given as binding are weak or reduced against the parent protein; the word gives no strength. Where a sequence is shown, tags or fusion partners need not be part of it.
# T1: FLAG-tagged human (h) USP26 (ubiquitin-specific protease 26) (human) (UniProt Q9BXU7)
# T1 sequence: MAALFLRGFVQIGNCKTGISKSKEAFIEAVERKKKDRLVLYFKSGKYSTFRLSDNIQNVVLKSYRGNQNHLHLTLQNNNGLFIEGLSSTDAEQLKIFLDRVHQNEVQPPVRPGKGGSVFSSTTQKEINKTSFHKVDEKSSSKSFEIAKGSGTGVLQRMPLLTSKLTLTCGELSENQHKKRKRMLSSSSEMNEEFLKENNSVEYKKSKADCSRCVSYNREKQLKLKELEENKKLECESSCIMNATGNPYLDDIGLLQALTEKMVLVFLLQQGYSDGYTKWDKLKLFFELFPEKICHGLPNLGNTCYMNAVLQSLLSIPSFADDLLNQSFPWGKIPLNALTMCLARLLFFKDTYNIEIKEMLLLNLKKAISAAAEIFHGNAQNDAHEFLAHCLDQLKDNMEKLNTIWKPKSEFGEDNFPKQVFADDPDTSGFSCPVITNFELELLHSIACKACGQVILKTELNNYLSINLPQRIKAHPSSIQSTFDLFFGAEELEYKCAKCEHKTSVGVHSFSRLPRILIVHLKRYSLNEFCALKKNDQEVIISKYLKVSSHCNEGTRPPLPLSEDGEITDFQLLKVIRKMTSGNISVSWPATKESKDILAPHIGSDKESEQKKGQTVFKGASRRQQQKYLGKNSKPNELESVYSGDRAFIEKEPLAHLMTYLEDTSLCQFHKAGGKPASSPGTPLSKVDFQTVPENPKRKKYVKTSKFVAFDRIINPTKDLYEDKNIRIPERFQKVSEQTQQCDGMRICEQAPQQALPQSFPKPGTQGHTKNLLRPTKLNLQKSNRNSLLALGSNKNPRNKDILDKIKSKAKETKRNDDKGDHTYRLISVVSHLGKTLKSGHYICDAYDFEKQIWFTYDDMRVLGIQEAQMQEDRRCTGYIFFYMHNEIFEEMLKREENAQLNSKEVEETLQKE
# Target: T1, FLAG-tagged human (h) USP26 (ubiquitin-specific protease 26) (human)
# Experiment: co-IP; 293T cells (also RING1A KO 293T cells, Supplementary Fig. 3b) co-transfected with HA-tagged PRC1 component and FLAG-hUSP26; lysed 48 h after transfection in 50 mM Tris-HCl pH 8.0, 150 mM NaCl, 1 mM EDTA, 1% Nonidet P-40, 2 mM MgCl2, benzonase, 10% glycerol; IP with anti-FLAG, western blot with anti-HA (Fig. 4a; Supplementary Fig. 3a)
row,Molecule,binding
1,HA-tagged PCGF1 (from UniProt Q9BSM1 1-259),no binding
2,EZH1 (from UniProt Q92800 1-747),no binding
3,EED (from UniProt O75530 1-441),no binding
4,HA-tagged CBX7 (from UniProt O95931 1-251),binds
5,HA-tagged RING1B (from UniProt Q99496 1-336),no binding
6,HA-tagged BMI1 (from UniProt P35226 1-326),no binding
7,"HA-tagged PCGF2 (protein, UniProt P35227 1-344) MHRTTRIKITELNPHLMCALCGGYFIDATTIVECLHSFCKTCIVRYLETNKYCPMCDVQVHKTRPLLSIRSDKTLQDIVYKLVPGLFKDEMKRRRDFYAAYPLTEVPNGSNEDRGEVLEQEKGALSDDEIVSLSIEFYEGARDRDEKKGPLENGDGDKEKTGVRFLRCPAAMTVMHLAKFLRNKMDVPSKYKVEVLYEDEPLKEYYTLMDIAYIYPWRRNGPLPLKYRVQPACKRLTLATVPTPSEGTNTSGASECESVSDKAPSPATLPATSSSLPSPATPSHGSPSSHGPPATHPTSPTPPSTASGATTAANGGSLNCLQTPSSTSRGRKMTVNGAPVPPLT",binds
8,"HA-tagged CBX4 (protein, UniProt O55187 1-551) MELPAVGEHVFAVESIEKKRIRKGRVEYLVKWRGWSPKYNTWEPEENILDPRLLIAFQNRERQEQLMGYRKRGPKPKPLVVQVPTFARRSNVLTGLQDSSADNRAKLELGTQGKGQGHQYELNSKKHHQYQPHSKERSGKPPPPGKSGKYYYQLNSKKHHPYQPDPKMYDLQYQGGHKEAPSPTCPDLGTKSHPPDKWAHGAAAKGYLGAVKPLGGGAGAPGKGSEKGPPNGMTPAPKEAVTGNGIGGKMKIVKNKNKNGRIVIVMSKYMENGMQAVKIKSGEAAEGEARSPSHKKRAAEERHPQGDRTFKKAAGASEEKKAEVPCKRREEEALVSGDAQPQDLGSRKLSPTKEAFGEQPLQLTTKPDLLAWDPARSSHPPAHHHHHHHHHHHHHTVGLNLSHARKRCLSETHGEREPCKKRLTARSISTPTCLGGSPVSEHPANVSPTAASLPQPEVILLDSDLDEPIDLRCVKMRSDAGEPPSTLQVKPEAPAVAAVVAPAPASEKPPAEAQEEPVEPLSEFKPFFGNIIITDVTANCLTVTFKEYVTV",binds
9,"HA-tagged CBX6 (protein, UniProt Q9DBY5 1-414) MELSAVGERVFAAESIIKRRIRKGRIEYLVKWKGWAIKYSTWEPEENILDSRLIAAFEQKERERELYGPKKRGPKPKTFLLKARAQAEALRISDVHFSVKPSASASSPKLHSSAAVHRLKKDIRRCHRMSRRPLPRPDPQGGSPGLRPPISPFSETVRIINRKVKPREPKRNRIILNLKVIDKGPGGGSTAQGTGALARPKVPSRNRVIGKSKKFSESMLRTQIRHMKFGTFALYKPPPAPLAPSTAGKADVASSGPGLLLATPAAAPFDAHSSSSSGCPSPTLQSSDPDDAPPKLLPETLSRSVPNWRESEVLDLSIPPEAAATGQRVPPDVTGAADQALHTALEPTGAGSSEPEAGDWRPEMSPCSNVVVTDVTSNLLTVTIKEFCSPEDFEKVAAGVAGATGGGGGTGPSK",binds
10,"HA-tagged RYBP (protein, UniProt Q8N488 1-228) MTMGDKKSPTRPKRQAKPAADEGFWDCSVCTFRNSAEAFKCSICDVRKGTSTRKPRINSQLVAQQVAQQYATPPPPKKEKKEKVEKQDKEKPEKDKEISPSVTKKNTNKKTKPKSDILKDPPSEANSIQSANATTKTSETNHTSRPRLKNVDRSTAQQLAVTVGNVTVIITDFKEKTRSSSTSSSTVTSSAGSEQQNQSSSGSESTDKGSSRSSTPKGDMSAVNDESF",no binding
11,"KDM2B (protein, UniProt Q8NHM5 1-1336) MAGPQMGGSAEDHPPRKRHAAEKQKKKTVIYTKCFEFESATQRPIDRQRYDENEDLSDVEEIVSVRGFSLEEKLRSQLYQGDFVHAMEGKDFNYEYVQREALRVPLIFREKDGLGIKMPDPDFTVRDVKLLVGSRRLVDVMDVNTQKGTEMSMSQFVRYYETPEAQRDKLYNVISLEFSHTKLEHLVKRPTVVDLVDWVDNMWPQHLKEKQTEATNAIAEMKYPKVKKYCLMSVKGCFTDFHIDFGGTSVWYHVFRGGKIFWLIPPTLHNLALYEEWVLSGKQSDIFLGDRVERCQRIELKQGYTFFIPSGWIHAVYTPVDSLVFGGNILHSFNVPMQLRIYEIEDRTRVQPKFRYPFYYEMCWYVLERYVYCVTQRSHLTQEYQRESMLIDAPRKPSIDGFSSDSWLEMEEEACDQQPQEEEEKDEEGEGRDRAPKPPTDGSTSPTSTPSEDQEALGKKPKAPALRFLKRTLSNESEESVKSTTLAVDYPKTPTGSPATEVSAKWTHLTEFELKGLKALVEKLESLPENKKCVPEGIEDPQALLEGVKNVLKEHADDDPSLAITGVPVVTWPKKTPKNRAVGRPKGKLGPASAVKLAANRTTAGARRRRTRCRKCEACLRTECGECHFCKDMKKFGGPGRMKQSCIMRQCIAPVLPHTAVCLVCGEAGKEDTVEEEEGKFNLMLMECSICNEIIHPGCLKIKESEGVVNDELPNCWECPKCNHAGKTGKQKRGPGFKYASNLPGSLLKEQKMNRDNKEGQEPAKRRSECEEAPRRRSDEHSKKVPPDGLLRRKSDDVHLRKKRKYEKPQELSGRKRASSLQTSPGSSSHLSPRPPLGSSLSPWWRSSLTYFQQQLKPGKEDKLFRKKRRSWKNAEDRMALANKPLRRFKQEPEDELPEAPPKTRESDHSRSSSPTAGPSTEGAEGPEEKKKVKMRRKRRLPNKELSRELSKELNHEIQRTENSLANENQQPIKSEPESEGEEPKRPPGICERPHRFSKGLNGTPRELRHQLGPSLRSPPRVISRPPPSVSPPKCIQMERHVIRPPPISPPPDSLPLDDGAAHVMHREVWMAVFSYLSHQDLCVCMRVCRTWNRWCCDKRLWTRIDLNHCKSITPLMLSGIIRRQPVSLDLSWTNISKKQLSWLINRLPGLRDLVLSGCSWIAVSALCSSSCPLLRTLDVQWVEGLKDAQMRDLLSPPTDNRPGQMDNRSKLRNIVELRLAGLDITDASLRLIIRHMPLLSKLHLSYCNHVTDQSINLLTAVGTTTRDSLTEINLSDCNKVTDQCLSFFKRCGNICHIDLRYCKQVTKEGCEQFIAEMSVSVQFGQVEEKLLQKLS",no binding
12,"PHC1 (protein, UniProt P78364 1-1004) METESEQNSNSTNGSSSSGGSSRPQIAQMSLYERQAVQALQALQRQPNAAQYFHQFMLQQQLSNAQLHSLAAVQQATIAASRQASSPNTSTTQQQTTTTQASINLATTSAAQLISRSQSVSSPSATTLTQSVLLGNTTSPPLNQSQAQMYLRPQLGNLLQVNRTLGRNVPLASQLILMPNGAVAAVQQEVPSAQSPGVHADADQVQNLAVRNQQASAQGPQMQGSTQKAIPPGASPVSSLSQASSQALAVAQASSGATNQSLNLSQAGGGSGNSIPGSMGPGGGGQAHGGLGQLPSSGMGGGSCPRKGTGVVQPLPAAQTVTVSQGSQTEAESAAAKKAEADGSGQQNVGMNLTRTATPAPSQTLISSATYTQIQPHSLIQQQQQIHLQQKQVVIQQQIAIHHQQQFQHRQSQLLHTATHLQLAQQQQQQQQQQQQQQQPQATTLTAPQPPQVPPTQQVPPSQSQQQAQTLVVQPMLQSSPLSLPPDAAPKPPIPIQSKPPVAPIKPPQLGAAKMSAAQQPPPHIPVQVVGTRQPGTAQAQALGLAQLAAAVPTSRGMPGTVQSGQAHLASSPPSSQAPGALQECPPTLAPGMTLAPVQGTAHVVKGGATTSSPVVAQVPAAFYMQSVHLPGKPQTLAVKRKADSEEERDDVSTLGSMLPAKASPVAESPKVMDEKSSLGEKAESVANVNANTPSSELVALTPAPSVPPPTLAMVSRQMGDSKPPQAIVKPQILTHIIEGFVIQEGAEPFPVGCSQLLKESEKPLQTGLPTGLTENQSGGPLGVDSPSAELDKKANLLKCEYCGKYAPAEQFRGSKRFCSMTCAKRYNVSCSHQFRLKRKKMKEFQEANYARVRRRGPRRSSSDIARAKIQGKCHRGQEDSSRGSDNSSYDEALSPTSPGPLSVRAGHGERDLGNPNTAPPTPELHGINPVFLSSNPSRWSVEEVYEFIASLQGCQEIAEEFRSQEIDGQALLLLKEEHLMSAMNIKLGPALKICAKINVLKET",no binding
